Molecular target: T1, GST-DMAP1 (UniProt Q9NPF5)
T1 construct: DMAP1, recombinant; also called recombinant GST-DMAP1; purified DMAP1; source: expressed in bacteria and purified
Assay: pull-down; purified GST-DMAP1 mixed with purified His-Bub3 (WT or mutant) immobilised on agarose beads, with or without purified p38, with or without c-Src; called GST pull down
Conditions: both partners purified

B1: His-Bub3 S211D (natural protein)
chain: not shown
notes: Bub3, recombinant, Ser211 to aspartate (phospho-mimic); also called phosphor-mimic mutant His-Bub3 S211D; source: expressed in bacteria and purified
binding result: binds

Reference: paper PMC6295060, “C-Src confers resistance to mitotic stress through inhibition DMAP1/Bub3 complex formation in pancreatic cancer” (Molecular Cancer, 2018)
